Measurements reported in PubChem BioAssay (Tox21).
Several values for one entry are separate records, joined by “and”; a condition that tells them apart may be missing. Identical values can stand only once. Inconclusive means that the source gave no clear call. Such entries were picked first, then a sample of the others. For part of these data: A potency beside an inconclusive call is a rough fit, not a confirmed value. More than one record can exist for a structure, and the calls need not agree. Activity calls are given as the source filed them. Unless noted, calls come from the whole dose curve; as a rule, active = well fitted curve in the direction sought with a large enough effect in the repeat runs; inconclusive = weak or mixed curves; inactive = no such curve, though single readings can be large; an effect the other way counts as inactive or inconclusive.

Experiments:
[1] = target: Progesterone receptor (Homo sapiens) (UniProt P06401); assay: qHTS assay to identify small molecule antagonists of the progesterone receptor (PR) signaling pathway (AID 1346795; active = well fitted inhibition curve with a large enough effect in the signal ratio in the repeat runs, not every such curve was filed as active; inconclusive = weak or mixed curves; the % refers to the signal ratio; note: potency is the fitted concentration of half-maximal effect; for activity change, negative = inhibition: % is set by controls: 0 for no effect and ±100 for the full control effect); conditions: PR-UAS-bla HEK293T, beta-lactamase FRET ratio, 16 h
In short: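 HEK293T PR-UAS-bla reporter cells in charcoal-stripped serum (2%) received compound after a 6 hr settling period, followed by R5020 agonist at 1 nM final; 16 hr incubation preceded the FRET substrate step and fluorescence measurement.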

[2] = qHTS assay to identify small molecule antagonists of the progesterone receptor (PR) signaling pathway - cell viability counter screen (AID 1346798); note: potency is the fitted concentration of half-maximal effect; nearly all actives have a fitted effect of over 50% in size
In short: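 Same-well multiplex: after 16 hr at 37C with compound and R5020 stimulation, HEK293T cells carrying a UAS-bla reporter received LiveBLAzer substrate (2 hr RT), then CellTiter-Glo (30 min RT) for luminescent viability.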

[3] = qHTS assay to identify small molecule agonists of the progesterone receptor (PR) signaling pathway - cell viability counter screen (AID 1346799; calls by dose curve; note: nearly all actives have a fitted effect of over 45% in size; note: potency is the fitted concentration of half-maximal effect)
In short: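 Counter screen for cytotoxicity: compound-treated PR-UAS-bla HEK293T cells (16 hr, 37C, 5% CO2) were assayed with CellTiter-Glo, luminescence measured after 30 min at room temperature.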

[4] = Caspase-3/7 induction in HepG2 cells by small molecules, qHTS cell viability counter screen (AID 1346981); note: nearly all actives have a fitted effect of over 30% in size; note: potency is the fitted concentration of half-maximal effect; for activity change, negative = cytotoxicity: % is set by controls: 0 for no effect and ±100 for the full control effect
In short: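 HepG2, WT, 2,000 cells/well; 5 hr pre-incubation 37 C/5% CO2; compound pin-transferred from DMSO; 16 hr exposure; CellTiter-Fluor, 1 hr; fluorescence read.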

[5] = Caspase-3/7 induction in CHO-K1 cells by small molecules, qHTS cell viability counter screen (AID 1346979); conditions: CellTiter-Fluor fluorescence, 17 h; activity change, negative = cytotoxicity: at 92.4 µM (top of the series); note: potency is the fitted concentration of half-maximal effect; nearly all actives have a fitted effect of over 35% in size
In short: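 In the same wells as the caspase read, viability of compound-treated wild-type CHO-K1 cells was assessed using CellTiter-Fluor, added after 16hr at 37C and measured by fluorescence following 1hr further incubation.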

[6] = target: Cytochrome P450 2D6 (Homo sapiens) (UniProt P10635); assay: Cytochrome P450 Family 2 Subfamily D Member 6 (CYP2D6) small molecule antagonists: luciferase reporter qHTS assay (AID 1671196); note: nearly all actives have a fitted effect of over 50% in size; note: potency is the fitted concentration of half-maximal effect
In short: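 Read-out is luminescence from luciferin formed by CYP2D6 turnover of a proluciferin substrate, recorded as relative luminescence units. Reactions ran 1 h at room temperature after NADPH regeneration solution was added.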

[7] = target: Thyrotropin-releasing hormone receptor (Homo sapiens) (UniProt P34981); assay: qHTS assay to identify small molecule agonists of the thyrotropin-releasing hormone receptor (TRHR) signaling pathway (AID 1346891; calls by dose curve; note: potency is the fitted concentration of half-maximal effect)
In short: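 Agonist-mode calcium mobilisation screen: TRHR-transfected HEK293 cells cultured overnight (18 h), dye-loaded for 2 h at 37 °C, exposed to compounds, and monitored by fluorescence for 3 min.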

[8] = target: Cytochrome P450 2C9 (Homo sapiens) (UniProt P11712); assay: Cytochrome P450 Family 2 Subfamily C Member 9 (CYP2C9) small molecule antagonists: luciferase reporter qHTS assay (AID 1671198); note: nearly all actives have a fitted effect of over 50% in size; note: potency is the fitted concentration of half-maximal effect; for activity change, negative = inhibition: % is set by controls: 0 for no effect and ±100 for the full control effect
In short: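 Enzyme-substrate mix preincubated with compound 10 min at room temperature; reaction started with NADPH regeneration solution, 1 h 37C. Luminescent luciferin product read after 20 min detection reagent.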

[9] = qHTS assay to identify small molecule antagonists of the TGF-beta/Smad signaling pathway - cell viability counter screen (AID 1346824); note: potency is the fitted concentration of half-maximal effect; nearly all actives have a fitted effect of over 50% in size
In short: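 Cytotoxicity counter-screen run in the same wells as the beta-lactamase Smad reporter read: CellTiter-Glo luminescence after 30 min at room temperature. HEK 293T SBE-bla cells had 5 hr compound exposure at 37 C with TGF-beta1 (0.25 ng/mL stock).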

[10] = qHTS assay to identify small molecule antagonists of the TGF-beta/Smad signaling pathway (AID 1346924; active = well fitted inhibition curve with a large enough effect in the signal ratio in the repeat runs, not every such curve was filed as active; inconclusive = weak or mixed curves; the % refers to the signal ratio); conditions: SBE-bla HEK293T, TGF-beta/Smad reporter, beta-lactamase ratio
In short: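 SBE-bla HEK 293T cells were plated overnight, then received compound in DMSO plus TGF-beta1 (added as a 0.25 ng/mL solution) and were incubated 5 h at 37 C. Beta-lactamase reporter activity was read after 2 h at room temperature with LiveBLAzer B/G FRET substrate (ex 405, em 460/530 nm).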

[11] = target: Nuclear receptor subfamily 1 group I member 2 (Rattus norvegicus) (UniProt Q9R1A7); assay: Rat pregnane X receptor (rPXR) activation by small molecules, qHTS assay (AID 1346983); conditions: rPXR luciferase reporter cells, One-Glo luminescence, 24 h; max activation: stronger effect = higher value; note: nearly all actives have a fitted effect of over 20% in size; note: potency is the fitted concentration of half-maximal effect; for max activation: % is set by controls: 0 for no effect and ±100 for the full control effect
In short: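 Luminescent readout (One-Glo luciferase, 30 min room temperature) followed 24 hr compound treatment at 37 C of rPXR cells plated 2,000 per well and preincubated 5hr; qHTS format with compounds delivered in DMSO.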

[12] = target: Cytochrome P450 2C19 (Homo sapiens) (UniProt P33261); assay: Cytochrome P450 Family 2 Subfamily C Member 19 (CYP2C19) small molecule antagonists: luciferase reporter qHTS assay (AID 1671197); note: potency is the fitted concentration of half-maximal effect; nearly all actives have a fitted effect of over 65% in size
In short: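 First, compounds are pinned into enzyme-substrate mix and held 10 min at room temperature. Second, NADPH regeneration solution is added and plates incubate 1 h at 37C. Third, detection reagent is added and luminescence read after 20 min.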

[13] = Caspase-3/7 induction in CHO-K1 cells by small molecules, qHTS assay (AID 1346980); note: potency is the fitted concentration of half-maximal effect; nearly all actives have a fitted effect of over 15% in size
In short: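 Luminescent Caspase-Glo 3/7 read (30min, room temperature) quantified apoptosis induction. Cells were wild-type CHO-K1, treated with compound for 17hr at 37 C and 5% CO2.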

[14] = target: Nuclear receptor subfamily 1 group I member 2 (Homo sapiens) (UniProt O75469); assay: Human pregnane X receptor (PXR) small molecule agonists, qHTS assay (AID 1346982); note: potency is the fitted concentration of half-maximal effect; nearly all actives have a fitted effect of over 35% in size
In short: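 Luciferase signal from ONE-Glo (30 min, room temperature) measured activation of hPXR-driven CYP3A4 reporter expression in PXR-Luc HepG2 cells treated with compounds for 24 hr at 37 C.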

[15] = Caspase-3/7 induction in HepG2 cells by small molecules, qHTS assay (AID 1346978); note: potency is the fitted concentration of half-maximal effect; nearly all actives have a fitted effect of over 15% in size
In short: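 Caspase-3/7 induction was measured by Caspase-Glo 3/7 luminescence (30 min, room temperature) after a 17 hr compound exposure of wild-type HepG2 cells seeded at 2,000 per well and pre-incubated 5 hr.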

[16] = activity change, negative = inhibition: at 92.4 µM (top of the series) unless noted
Tags give direction and shape of the fitted curve.

Sequence of UniProt P10635 (P10635 whole entry, looked up): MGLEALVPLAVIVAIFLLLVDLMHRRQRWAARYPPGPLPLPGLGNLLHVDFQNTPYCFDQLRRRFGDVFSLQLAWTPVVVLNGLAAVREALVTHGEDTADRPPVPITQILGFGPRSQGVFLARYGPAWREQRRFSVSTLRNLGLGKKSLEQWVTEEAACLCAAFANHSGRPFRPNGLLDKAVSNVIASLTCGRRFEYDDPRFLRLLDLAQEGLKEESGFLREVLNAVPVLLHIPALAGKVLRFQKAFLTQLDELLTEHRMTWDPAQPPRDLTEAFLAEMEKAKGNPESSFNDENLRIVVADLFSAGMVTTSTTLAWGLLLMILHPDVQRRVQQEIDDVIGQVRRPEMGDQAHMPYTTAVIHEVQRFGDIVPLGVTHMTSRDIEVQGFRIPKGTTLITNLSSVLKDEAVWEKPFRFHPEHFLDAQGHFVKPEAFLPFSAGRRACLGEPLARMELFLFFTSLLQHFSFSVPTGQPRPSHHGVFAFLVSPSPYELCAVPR
Sequence of UniProt P11712 (P11712 whole entry, looked up): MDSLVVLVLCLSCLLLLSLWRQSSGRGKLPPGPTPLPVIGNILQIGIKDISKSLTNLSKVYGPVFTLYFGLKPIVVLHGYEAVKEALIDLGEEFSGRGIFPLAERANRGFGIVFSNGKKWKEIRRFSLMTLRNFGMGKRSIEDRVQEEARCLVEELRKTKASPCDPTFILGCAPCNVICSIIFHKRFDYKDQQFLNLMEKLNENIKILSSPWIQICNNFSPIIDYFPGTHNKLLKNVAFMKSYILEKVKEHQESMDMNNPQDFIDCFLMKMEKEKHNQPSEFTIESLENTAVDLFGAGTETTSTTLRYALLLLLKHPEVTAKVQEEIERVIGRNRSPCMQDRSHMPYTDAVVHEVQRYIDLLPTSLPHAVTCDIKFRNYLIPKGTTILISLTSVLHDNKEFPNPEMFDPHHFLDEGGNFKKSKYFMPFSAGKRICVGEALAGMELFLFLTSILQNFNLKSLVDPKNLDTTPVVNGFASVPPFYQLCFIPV
Sequence of UniProt P06401 (P06401 whole entry, looked up): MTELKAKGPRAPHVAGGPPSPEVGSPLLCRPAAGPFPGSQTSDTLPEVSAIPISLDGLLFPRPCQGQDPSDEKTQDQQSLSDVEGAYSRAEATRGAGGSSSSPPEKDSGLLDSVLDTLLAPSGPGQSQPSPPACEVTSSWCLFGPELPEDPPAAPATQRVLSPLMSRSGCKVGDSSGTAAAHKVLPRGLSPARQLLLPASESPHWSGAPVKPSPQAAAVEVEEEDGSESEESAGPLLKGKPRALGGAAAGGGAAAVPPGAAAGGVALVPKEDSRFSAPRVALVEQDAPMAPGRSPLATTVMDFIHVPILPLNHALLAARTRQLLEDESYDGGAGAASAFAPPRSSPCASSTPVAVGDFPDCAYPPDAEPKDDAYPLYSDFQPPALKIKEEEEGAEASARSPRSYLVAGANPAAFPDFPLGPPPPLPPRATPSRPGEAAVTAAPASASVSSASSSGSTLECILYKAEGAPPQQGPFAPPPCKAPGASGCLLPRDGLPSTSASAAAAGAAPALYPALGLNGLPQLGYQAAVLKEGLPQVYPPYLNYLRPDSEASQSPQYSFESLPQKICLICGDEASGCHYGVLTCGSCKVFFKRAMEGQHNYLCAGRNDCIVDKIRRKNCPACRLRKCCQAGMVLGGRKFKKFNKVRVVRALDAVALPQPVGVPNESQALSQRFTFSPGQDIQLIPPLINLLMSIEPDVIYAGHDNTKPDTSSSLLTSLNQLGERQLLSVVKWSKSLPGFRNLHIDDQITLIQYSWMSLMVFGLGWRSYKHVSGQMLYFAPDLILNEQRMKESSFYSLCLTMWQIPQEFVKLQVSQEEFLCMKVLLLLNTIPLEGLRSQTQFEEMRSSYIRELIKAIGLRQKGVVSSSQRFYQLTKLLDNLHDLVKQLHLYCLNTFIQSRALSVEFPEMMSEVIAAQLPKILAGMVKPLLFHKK
Sequence of UniProt P34981 (P34981 whole entry, looked up): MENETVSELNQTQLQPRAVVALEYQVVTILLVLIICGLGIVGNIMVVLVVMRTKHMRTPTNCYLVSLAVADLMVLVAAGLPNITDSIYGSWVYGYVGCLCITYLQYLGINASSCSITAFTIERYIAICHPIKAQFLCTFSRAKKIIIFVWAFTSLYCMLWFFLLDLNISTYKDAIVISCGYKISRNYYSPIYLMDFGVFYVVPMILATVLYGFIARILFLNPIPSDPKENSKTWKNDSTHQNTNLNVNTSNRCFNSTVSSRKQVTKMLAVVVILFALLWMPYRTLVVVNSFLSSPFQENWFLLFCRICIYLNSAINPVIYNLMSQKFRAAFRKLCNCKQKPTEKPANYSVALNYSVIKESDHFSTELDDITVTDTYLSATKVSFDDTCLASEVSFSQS
Sequence of UniProt Q9R1A7 (Q9R1A7 whole entry, looked up): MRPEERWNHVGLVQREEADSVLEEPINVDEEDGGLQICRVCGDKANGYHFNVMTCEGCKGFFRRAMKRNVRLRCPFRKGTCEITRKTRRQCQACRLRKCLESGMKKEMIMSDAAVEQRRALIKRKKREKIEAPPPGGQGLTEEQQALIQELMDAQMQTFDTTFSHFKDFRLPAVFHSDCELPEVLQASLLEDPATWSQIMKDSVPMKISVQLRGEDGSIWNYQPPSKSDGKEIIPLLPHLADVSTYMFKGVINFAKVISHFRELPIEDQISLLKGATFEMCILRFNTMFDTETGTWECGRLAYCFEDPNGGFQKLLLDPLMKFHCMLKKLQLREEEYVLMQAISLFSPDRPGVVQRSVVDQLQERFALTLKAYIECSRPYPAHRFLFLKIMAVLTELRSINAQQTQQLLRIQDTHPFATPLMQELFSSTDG
Sequence of UniProt P33261 (P33261 whole entry, looked up): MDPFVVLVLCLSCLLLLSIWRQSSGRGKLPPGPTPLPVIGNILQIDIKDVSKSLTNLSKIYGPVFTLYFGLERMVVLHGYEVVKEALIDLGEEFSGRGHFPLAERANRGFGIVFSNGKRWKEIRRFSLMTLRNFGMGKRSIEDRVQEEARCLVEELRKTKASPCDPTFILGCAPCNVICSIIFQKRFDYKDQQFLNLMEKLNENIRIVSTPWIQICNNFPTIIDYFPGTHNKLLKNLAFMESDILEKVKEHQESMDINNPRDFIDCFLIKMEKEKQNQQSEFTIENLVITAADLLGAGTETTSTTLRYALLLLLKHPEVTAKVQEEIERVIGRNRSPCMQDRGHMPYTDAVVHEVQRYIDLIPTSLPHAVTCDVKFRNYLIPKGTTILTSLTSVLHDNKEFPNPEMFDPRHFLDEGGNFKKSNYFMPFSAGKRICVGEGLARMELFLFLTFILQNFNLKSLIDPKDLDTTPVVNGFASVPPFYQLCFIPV
Sequence of UniProt O75469 (O75469 whole entry, looked up): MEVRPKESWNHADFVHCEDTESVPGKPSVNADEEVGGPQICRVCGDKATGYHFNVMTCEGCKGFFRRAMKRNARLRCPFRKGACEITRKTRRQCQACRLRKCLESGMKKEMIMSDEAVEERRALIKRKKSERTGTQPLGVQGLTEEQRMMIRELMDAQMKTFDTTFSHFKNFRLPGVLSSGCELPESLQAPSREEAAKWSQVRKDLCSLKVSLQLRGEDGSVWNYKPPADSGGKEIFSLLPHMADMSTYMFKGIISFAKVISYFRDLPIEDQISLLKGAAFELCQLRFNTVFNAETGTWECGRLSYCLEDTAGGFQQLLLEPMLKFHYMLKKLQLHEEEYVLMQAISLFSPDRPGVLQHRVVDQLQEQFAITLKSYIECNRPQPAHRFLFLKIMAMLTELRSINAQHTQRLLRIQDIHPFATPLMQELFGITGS

Compound: CC[C@H](C)[C@H](N)C(=O)O
- Potency [1, 16]: inactive

Compound: CC(C)NCC(O)COc1cccc2ccccc12 (stereo not given)
- activity change, negative = inhibition [1, 16]: inconclusive: -26.6%
- activity change, negative = inhibition ([1]; at 92.4 µM (top of the series)): inactive: -18.7%
- Potency [2]: active: 30.9 µM and active: 27.3 µM
- Potency [3]: inconclusive: 69.3 µM [cytotoxic, single point] and inconclusive: 43.3 µM [cytotoxic, partial curve]
- Potency [4]: inconclusive: 61.8 µM [cytotoxic, partial curve, poor fit]

Compound: O=C(CS(=O)Cc1ccco1)NC/C=C\COc1cc(CN2CCCCC2)ccn1 (stereo not given)
- Potency [1, 16]: inactive

Compound: O=C(Oc1ccccc1)c1ccc(O)cc1
- Potency [1, 16]: active: 61.1 µM
- activity change, negative = inhibition [1, 16]: inconclusive: -63.5%
- Potency [5]: inconclusive: 77.4 µM [cytotoxic, partial curve, poor fit]
- Potency [4]: inconclusive: 21.7 µM [rising, partial curve]
- Potency [6]: inconclusive: 63.7 µM [inhibitor, partial curve, poor fit]

Compound: CCCCCCCCC1CO1 (stereo not given)
- Potency [1, 16]: inactive

Compound: c1ccc2ccccc2c1
- Potency [1, 16]: inactive

Compound: CC(=O)Oc1cc2c(s1)CCN(C(C(=O)C1CC1)c1ccccc1F)C2 (stereo not given)
- activity change, negative = inhibition [1, 16]: inconclusive: -32.2% [at 42.5 µM]

Compound: CCCCOC(=O)CCCCC(=O)OCCCC
- Potency [1, 16]: inactive

Compound: Nc1nc(F)nc2c1ncn2[C@@H]1O[C@H](CO)[C@@H](O)[C@@H]1O
- Potency [1, 16]: inactive

Compound: CN(C)c1ccc(C(=N)c2ccc(N(C)C)cc2)cc1
- Potency [1, 16]: inconclusive: 30.3 µM [falling, partial curve]
- activity change, negative = inhibition [1, 16]: inconclusive: -42.2%
- Potency [2]: inconclusive: 186 nM [cytotoxic, full curve, poor fit]
- Potency [7]: inconclusive: 17.2 µM [activator, partial curve] and inconclusive: 23.6 µM [activator, partial curve, poor fit]
- Potency [4]: active: 42.7 µM and active: 46.7 µM
- Potency [8]: inconclusive: 78.7 µM [inhibitor, single point] and inactive

Compound: COC1=CC(=O)C[C@@H](C)[C@]12Oc1c(Cl)c(OC)cc(OC)c1C2=O
- Potency [1, 16]: active: 27.1 µM and active: 30.6 µM
- activity change, negative = inhibition [1, 16]: inconclusive: -41.3% [at 42.5 µM]
- Potency [3]: inconclusive: 48.1 µM [rising, partial curve] and inconclusive: 38.6 µM [rising, partial curve]
- Potency [9]: inconclusive: 15.1 µM [cytotoxic, single point]
- activity, negative = inhibition ([10]; at 35.3 µM (top of the series)): inconclusive: 1.13%
- activity, negative = inhibition ([10]; at 76.8 µM (top of the series)): inconclusive: 18.3% and inconclusive: 3.83%
- Potency [4]: inconclusive: 4.81 µM [cytotoxic, full curve, poor fit] and inconclusive: 13.7 µM [cytotoxic, full curve]
- Potency [11]: active: 28.2 µM
- Potency [8]: inconclusive: 62.7 µM [inhibitor, partial curve]

Compound: Cc1cc(O)cc(C)c1Cl
- activity change, negative = inhibition [1, 16]: inconclusive: -25.1%
- activity change, negative = inhibition ([1]; at 42.5 µM (top of the series)): inactive: -25.8%
- Potency [2]: inconclusive: 5310 nM [rising, partial curve, poor fit]
- Potency [4]: inactive
- max activation [11]: inactive: -1.35%
- Potency [6]: inconclusive: 43.6 µM [inhibitor, partial curve, poor fit]
- Potency [12]: inconclusive: 89.4 µM [inhibitor, single point]

Compound: CNC(=O)CN(CCN(CCN(CC(=O)[O-])CC(=O)NC)CC(=O)[O-])CC(=O)[O-].O.[Gd+3]
- Potency [1, 16]: inactive

Compound: COCCOCC(OC)OC
- Potency [1, 16]: inactive

Compound: CC(C)CCCC(=O)O
- Potency [1, 16]: inactive

Compound: O=C(O)C(=O)Cc1c[nH]c2ccccc12
- Potency [1, 16]: inactive

Compound: CCn1cc(C(=O)O)c(=O)c2ccc(C)nc21
- activity change, negative = inhibition [1, 16]: inconclusive: 11.5%
- activity change, negative = inhibition ([1]; at 42.5 µM (top of the series)): inactive: 9.34%
- activity change, negative = inhibition ([1]; at 92.4 µM (top of the series)): inactive: 1.34%
- Potency [13]: inconclusive: 76.9 µM [activator, single point]
- Potency [4]: inconclusive: 27.3 µM [rising, single point]
- Potency [6]: inactive

Compound: CC(O)Cn1cnc2c1c(=O)n(C)c(=O)n2C (stereo not given)
- Potency [1, 16]: inactive

Compound: CCCCNC(N)=O
- activity change, negative = inhibition [1, 16]: inconclusive: 14.5%
- activity change, negative = inhibition ([1]; at 92.4 µM (top of the series)): inactive: 10.6%
- Potency [14]: inconclusive: 68.6 µM [activator, partial curve, poor fit]

Compound: CC(C)[C@@H]1CC[C@@H](C)C[C@H]1O
- activity change, negative = inhibition [1, 16]: inconclusive: -26.6%
- activity change, negative = inhibition ([1]; at 92.4 µM (top of the series)): inactive: 6.38% [middle of 4 runs]
- Potency [3]: inactive
- Potency [15]: active: 69.5 µM
- Potency [4]: inconclusive: 61.9 µM [cytotoxic, single point]

Compound: CN(C)C(=O)COC(=O)Cc1ccc(OC(=O)c2ccc(N=C(N)N)cc2)cc1
- Potency [1, 16]: inactive

Compound: O=C(O)/C=C/c1ccc(O)c(O)c1
- Potency [1, 16]: inactive
